Experimental data published in PMC12136788.
This is one part of the list.

T1: UNK ZnF1-3 (human, UniProt Q9C0B0 31-174)
T1 sequence: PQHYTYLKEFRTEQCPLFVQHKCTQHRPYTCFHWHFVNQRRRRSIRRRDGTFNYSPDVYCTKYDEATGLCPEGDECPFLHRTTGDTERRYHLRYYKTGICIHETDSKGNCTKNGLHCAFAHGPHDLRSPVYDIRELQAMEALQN

B1: chr7:150915252:150915253:-_ENSG00000033050_ENST00000287844|hu_hu|motif|central (ssRNA)
RNA: GGGAGUUCUACAGUCCGACGAUCCUUCCCUGCUCCAUUGGGCCCUACCAGAGCCACUCGUGUGUCAAGGUCAAUUCCAAAUUCGGGAUUAUUGUAGAUGCAAGGCCCAUCUUUUGUAUACUUGAAGCUCACAUUUUGCACCAUCAACAGAGGAUUGAGCAUCA
B2: chr10:112362630:112362631:-_ENSMUSG00000074748_ENSMUST00000099276|mus_hu|motif|central (ssRNA)
RNA: GGGAGUUCUACAGUCCGACGAUCAUGGACUACUUAUGCAAAAAUAAAAAUCUCCAAAACAAAGGACAGUGGUGAGCUUCACGGCCCUCCCCCGAUGAUCCCAGCAUGCGAUAAUGCCAGGCAGUGGUCCCUGGGCAUGCGAUGCAACAGAGGAUUGAGCAUCA
B3: chr11:51804959:51804960:-_ENSMUSG00000020390_ENSMUST00000020657|perfect_dup|FALSE|FALSE (ssRNA)
RNA: GGGAGUUCUACAGUCCGACGAUCCAUUUUGGAUAAAAACCUAACGGUUGGUGGUUUAUUUGGAUAUUCUUCAGAAAAUUCUAUUACUAGUUUAAAAGUACCAUCUUCAAAGGGUGUCCCUUCUGGUCCAAAUAUAACUGCAUUCAACAGAGGAUUGAGCAUCA
B4: chr2:166765161:166765162:+_ENSMUSG00000002718_ENSMUST00000002790|mus_mus|motif|central (ssRNA)
RNA: GGGAGUUCUACAGUCCGACGAUCAGACAAGCAUAUUGCUUCAAACAUGUAGUGAUUGAAAUGAGGUUUACUGGGAUUCUUACGGACAGCCAGCAGCUUCUGUGUGAGCUGCGUGAUGAGAGUGGGGAUAUAGGGGAUGAUGGCCAACAGAGGAUUGAGCAUCA
B5: chr8:74858975:74858976:-_ENSG00000154582_ENST00000284811|hu_mus|hu_hu_hu_mus_True|88_108 (ssRNA)
RNA: GGGAGUUCUACAGUCCGACGAUCGACCUUGUACGUAAAAUACAUGCAUACUUUCGAUAGCACAUGUGAGGGGAUCUCUCUAAAAUUGACCUCGUUGGUUUCAUUCUCAGCAAACUGACCUGGACCACUCAACAUAGCCUUUAUCAACAGAGGAUUGAGCAUCA
B6: chr1:225611761:225611762:-_ENSG00000143815_ENST00000272163|hu_mus|hu_hu_hu_mus_True|1_28 (ssRNA)
RNA: GGGAGUUCUACAGUCCGACGAUCCCAGGCCAUCGGCCUCUGACCACUUCACCCUCAACAAACUUCCUACUUGGCAUUUUCUAAAAUUAGUCUGGCCGCGCUCCGGCCGGUGACACGGCCACUCCAGGACAGUCACCCGCACAGCAACAGAGGAUUGAGCAUCA
B7: chr1:163112212:163112213:-_ENSG00000143248_ENST00000313961|hu_hu|hu_hu_hu_mus_False|48_88 (ssRNA)
RNA: GGGAGUUCUACAGUCCGACGAUCUUUUAUUAUCAGUAAGAGUGAGUCACAUAGUACGCAAAGUAUUGGAUACAAUAAUCAGGAAACAAACACAAUUGGUCCAGAAUUUAAAACUUUAUGAGCGAAGUGCUGGCACAGGACUUACAACAGAGGAUUGAGCAUCA
B8: chr4:76721835:76721836:+_ENSG00000138768_ENST00000264904|hu_mus|hu_hu_hu_mus_True|18_88 (ssRNA)
RNA: GGGAGUUCUACAGUCCGACGAUCGUUUGGCUGGGGUUUCUGAGACGUCUGGAAUACUAACUCAUGUUUGCUAAUAAAUCCUAGUUUCUCUAUGAAAUUCUCUUUGCCAAUCCUCUUUCAAUCAGUUUGCUUUAGUUUCUCUUUCAACAGAGGAUUGAGCAUCA
B9: chrX:119742084:119742085:+_ENSG00000232119_ENST00000371317|hu_mus|motif|central (ssRNA)
RNA: GGGAGUUCUACAGUCCGACGAUCAAAAGGAUAUUUAUGAAGUAAUCUUAAAGUUGGAUAAAAAGGCCCUUCUCUUUGUCGGAAAAACAGUAAUUCUCCAUUUACUGUAAGGAUUUCUAUGUGUUCAUGGCAUCGGACAAUUUUCAACAGAGGAUUGAGCAUCA
B10: chr12:53620312:53620313:+_ENSMUSG00000035133_ENSMUST00000110725|mus_mus|FALSE|FALSE (ssRNA)
RNA: GGGAGUUCUACAGUCCGACGAUCAGGUUUAAUAGGUGGAGGCACUUUAUGGUUACGUUCAUGAUCGUGACAAUUUGGAGUGCUAUGAACAGGAUACUCAUUUCCUUCCAAAUCUAACCUGUAUCUGGAACGGUCACUAGGUGUCAACAGAGGAUUGAGCAUCA
B11: chr7:54825262:54825263:-_ENSG00000132432_ENST00000352861|hu_hu|hu_hu_hu_mus_False|1_28 (ssRNA)
RNA: GGGAGUUCUACAGUCCGACGAUCCUGCCGGCUGGGCUCCACAAACUGCAUUACCUGAUCCAUGUUUGUUGGAUGGCGGAUUGAGAGCGUAGAGACACGUAGCUCAGGGAGCUUGCUAGCCCAACGGAACCGGAAGCGGAAUCCCAACAGAGGAUUGAGCAUCA
B12: 9931817_9931937_345_CDS_ENSG00000101558_ENST00000340541|human|control|control (ssRNA)
RNA: GGGAGUUCUACAGUCCGACGAUCUGGGUCAAUAAUUCCACUGUUGGGCCUCACACAGUACCGGCGAGGUGCUGUAGUCUUCACUUUGAAACACACUUUUCUAUCCGAUGGAUUUCGCAAUUUAAGAUUUGUAGUGACUACAUCCAACAGAGGAUUGAGCAUCA
B13: 39667250_39668329_1538_CDS_ENSG00000130669_ENST00000435673|human|control|control (ssRNA)
RNA: GGGAGUUCUACAGUCCGACGAUCCGACCAGAUGUCUACCUCUGGCCCGUAGGGAAGGCGGGAGAUGAGCUCUGGGGCCAUCCAGUAGGGCGUGCCGACCAGCGACUUCCUUCGGGGCACUUCCUUGCUCACCUGGGCGCAGAACAACAGAGGAUUGAGCAUCA
B14: chr2:65331917:65331918:-_ENSG00000138069_ENST00000409751|hu_mus|motif|central (ssRNA)
RNA: GGGAGUUCUACAGUCCGACGAUCGAAAUCCACACCAAUUGUGCUGAUGUAGCUUUCCGUAUACGUAUCAUCUGCAAACCGGAGGAGAAGGCAGGACUUUCCAACCCCAGAAUCGCCAAUCAGAAGUAACUUGAAUAAAUAAUCCAACAGAGGAUUGAGCAUCA
B15: chr18:9315019:9315020:-_ENSMUSG00000024286_ENSMUST00000053917|mus_mus|motif|central (ssRNA)
RNA: GGGAGUUCUACAGUCCGACGAUCCAUACAAUUCUAAACUUUUCCACGCUCACACAGGAGGAGUAUAUGAUAAAGCAAAUGCGGGAAUUUAUCUCAAACAAGGAAAACCUCACAAACCUCGGUCACCGCAACCUAAGAUGGGCACAACAGAGGAUUGAGCAUCA
B16: chr8:141525804:141525805:+_ENSG00000104472_ENST00000220913|hu_mus|FALSE|FALSE (ssRNA)
RNA: GGGAGUUCUACAGUCCGACGAUCCUGUACAAUAAAACUGCAUAGUCCUUUUUUUAGAAAGCGAACAUCAAAGGUAGCACAGUAUGCAUGUAGUCUGUGAGAACAGUGUGUCCACGCGACUACACAGCUGCCAGGGAGCUUCCCCAACAGAGGAUUGAGCAUCA
B17: chr7:141450121:141450122:+_ENSG00000106028_ENST00000265304|hu_hu|FALSE|FALSE (ssRNA)
RNA: GGGAGUUCUACAGUCCGACGAUCUCAUCCUUUCUACUCCUUCUCUUUCGUCUGGUCACUCAGAAAUAUAAUAUUAUCAGCUAUGAUUGUUGUUGCUUGUCGCCUCACAUUAUUUUUAUCCAUGUAUUCACCAUAGUCUAUUUUCAACAGAGGAUUGAGCAUCA
B18: 70342072_70342192_62_3pUTR_ENSMUSG00000030465_ENSMUST00000120071|mouse|control|control (ssRNA)
RNA: GGGAGUUCUACAGUCCGACGAUCAAUGCUGAAGGAACUCUGCCGCUUGUACUCCAGCAGCUCCAAGCAGCUCCUGAGCAGCUCUGAGAUCGAUCGCCUUAGCUUAGGAAGCACCAGGCUGCCUCCCCCAGCAUCUUCAACUACCAACAGAGGAUUGAGCAUCA
B19: chr2:176857102:176857103:-_ENSG00000144320_ENST00000272748|hu_mus|FALSE|FALSE (ssRNA)
RNA: GGGAGUUCUACAGUCCGACGAUCAGAAUAGAUAAUUAAUCUUCCAACCCAUAAUUUUUGCAAUCUCUGAUUUUUUUCUCUAAAUUCUUCCAAUGCUUGAAUUUCCUUAUCUAUAUUUUCUAGAACUUCUACUGUUGAAGGUUUCAACAGAGGAUUGAGCAUCA
B20: chr1:220276048:220276049:+_ENSG00000067704_ENST00000302637|hu_hu|hu_hu_hu_mus_True|38_98 (ssRNA)
RNA: GGGAGUUCUACAGUCCGACGAUCGCAAAUUGCCUGGUUGGCUGGAAUUGUCCAAGGCUGGGUGGUCCAAACUAAAACGCUAACAGGGGAUGAGGCAUCUAUAAGAGACUCCAACUUCGGAGGAGGUCUCAGGAGGGGGAAUCUCAACAGAGGAUUGAGCAUCA
B21: 110106817_110108609_2615_CDS_ENSMUSG00000032481_ENSMUST00000088716|mouse|control|control (ssRNA)
RNA: GGGAGUUCUACAGUCCGACGAUCAACGUUUCCUUCCGAAAUCUCGUGUUCCACUUUCUUCUUCCCGGCAUCGCUUUCUCUUUCUUUACAUGUAUCAGUGAGCUCUUUGUUCUCUUCAUUCUCCUUUUCUUCUGGCUUGACAUCCAACAGAGGAUUGAGCAUCA
B22: chr1:66463027:66463028:+_ENSMUSG00000015222_ENSMUST00000114013|mus_mus|mus_mus_mus_hu_True|18_48 (ssRNA)
RNA: GGGAGUUCUACAGUCCGACGAUCUUUUCUUUCAGGAGUGGAAAUUCUGCCUCUCCCGGUUUUAAAAGGCUUUUCUUUUCUAUGUUUCUCGAGAGACGAUCUCCGAGCUUCCUUUUCAGCUCUCUCCUCUUUAGGAAUAGUUUCCAACAGAGGAUUGAGCAUCA

Target: T1, UNK ZnF1-3
Assay: nsRBNS (natural sequence RNA bind-n-seq); RBNS binding buffer (assumed for nsRBNS): 25 mM Tris pH 7.5, 150 mM KCl, 3 mM MgCl2, 0.01% Triton X-100, 500 ug/ml BSA, 20 U/ml SUPERase-In, 4 C; UNK is unkempt and MSI1 is Musashi-1; names of the RNAs are library labels; protein concentration not given here; high values mean tight binding

Binder | binding signal [enrichment R]
B1 | 0.887
B2 | 1.11
B3 | 0.664
B4 | 1.49
B5 | 0.818
B6 | 1.17
B7 | 1.64
B8 | 0.381
B9 | 0.594
B10 | 0.679
B11 | 1.24
B12 | 0.411
B13 | 0.88
B14 | 1.35
B15 | 1.62
B16 | 0.613
B17 | 0.494
B18 | 0.706
B19 | 0.461
B20 | 1.58
B21 | 0.337
B22 | 0.388
